{"source": "the supplement of paper PMC9446081", "note": "Out of some 39,000 compounds screened, about 220 (0.56%) showed activity. The list shows a part of the results.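 Also: static incubation at 37 °C against the wild-type strain, values averaged over two biological replicates.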"}
{"system": "Escherichia coli K-12 BW25113", "test": "relative growth (OD600 normalised to plate interquartile mean) (fraction); higher = less growth inhibition, active = 0.2 or less", "conditions": "50 µM; LB; incubation time: overnight (16-24 h)"}
{"molecule": "C[C@H]1CN([C@@H](C)CO)C(=O)c2cc(NC(=O)Nc3ccc4c(c3)OCO4)ccc2O[C@H]1CN(C)C(=O)Nc1cccc2ccccc12", "relative growth": "inactive: 1.01"}
{"molecule": "Cc1ccc(-c2ccc3c(c2)O[C@H](CN(C)Cc2cncnc2)[C@@H](C)CN([C@@H](C)CO)S3(=O)=O)cc1", "relative growth": "inactive: 1.01"}
{"molecule": "Cc1ccc2c(Cl)cc(Cl)c(O)c2n1", "relative growth": "inactive: 1.1"}
{"molecule": "COc1ccc2c3c([nH]c2c1)[C@H](CO)N(CC1CCCCC1)C[C@]13CN(C1)C(=O)Nc1cccc(c1)F", "relative growth": "inactive: 1.02"}
{"molecule": "C[C@H]1CCCCO[C@H](CN(C)C(=O)c2ccccc2)[C@@H](C)CN([C@@H](C)CO)C(=O)c2cc(NC(=O)c3ccccc3)ccc2O1", "relative growth": "inactive: 1.03"}
{"molecule": "C[C@@H]1CCCCO[C@H](CN(C)S(=O)(=O)c2ccccc2)[C@@H](C)CN([C@H](C)CO)C(=O)c2cc(NC(=O)Nc3ccc4c(c3)OCO4)ccc2O1", "relative growth": "inactive: 1"}
{"molecule": "C[C@H](CO)N1C[C@H](C)[C@@H](CN(C)S(C)(=O)=O)Oc2ccc(NS(=O)(=O)c3ccc(Cl)cc3)cc2C1=O", "relative growth": "inactive: 0.988"}
{"molecule": "c1cn2c3c(n1)CCCc3c1cc(C3CCCCC3)ccc12", "relative growth": "inactive: 1.06"}
{"molecule": "Cc1ccc(S(=O)(=O)N2C[C@@H](O)COC[C@@H]3O[C@@H](CC(=O)N[C@@H]4CCN(Cc5ccccc5)C4)CC[C@H]32)cc1", "relative growth": "inactive: 1.02"}
{"molecule": "C[C@@H]1CCCCO[C@H](CN(C)Cc2ccc(C(=O)Nc3ccccc3N)cc2)[C@H](C)CN([C@H](C)CO)C(=O)c2cc(N(C)C)ccc2O1", "relative growth": "inactive: 0.986"}
{"molecule": "Cc1noc(C)c1S(=O)(=O)Nc1ccc2c(c1)C(=O)N([C@H](C)CO)C[C@H](C)[C@H](CN(C)Cc1ccc(C(=O)Nc3ccccc3N)cc1)OCCCC[C@@H](C)O2", "relative growth": "inactive: 0.903"}
{"molecule": "C[C@H](CO)N1C[C@H](C)[C@H](CN(C)C(=O)Cc2ccncc2)Oc2ncc(C#Cc3ccccc3F)cc2C1=O", "relative growth": "inactive: 0.964"}
{"molecule": "C[C@@H]1CN([C@H](C)CO)C(=O)c2cccc(NC(=O)C3CCCCC3)c2O[C@@H]1CN(C)Cc1ccc(-c2ccccc2)cc1", "relative growth": "inactive: 1.06"}
{"molecule": "COc1ccc(S(=O)(=O)Nc2ccc3c(c2)C(=O)N([C@H](C)CO)C[C@@H](C)[C@@H](CN(C)Cc2ccc(Cl)c(Cl)c2)OCCCC[C@H](C)O3)cc1", "relative growth": "inactive: 0.975"}
{"molecule": "C[C@@H]1CCCCO[C@@H](CN(C)C(=O)Cc2ccccc2)[C@H](C)CN([C@@H](C)CO)C(=O)c2cc(NC(=O)CCC(F)(F)F)ccc2O1", "relative growth": "inactive: 0.971"}
{"molecule": "C[C@H](CO)N1C[C@H](C)[C@@H](CN(C)S(=O)(=O)c2cn(C)cn2)Oc2c(NC(=O)C3CCOCC3)cccc2C1=O", "relative growth": "inactive: 0.921"}
{"molecule": "C[C@H]1CN([C@@H](C)CO)C(=O)c2cccc(NS(=O)(=O)c3ccccc3)c2O[C@H]1CN(C)Cc1ccc(-c2ccccc2)cc1", "relative growth": "inactive: 0.98"}
{"molecule": "OC[C@H]1NC[C@@H](O)[C@@H](O)[C@@H]1O", "relative growth": "inactive: 0.918"}
{"molecule": "C[C@H](CO)N1C[C@H](C)[C@H](CN(C)Cc2ccncc2)OCCCC[C@H](C)Oc2ccc(NC(=O)NC3CCCCC3)cc2C1=O", "relative growth": "inactive: 1.02"}
{"molecule": "Cc1noc(C)c1S(=O)(=O)Nc1ccc2c(c1)C(=O)N([C@H](C)CO)C[C@H](C)[C@H](CN(C)S(=O)(=O)c1cn(C)cn1)OCCCC[C@@H](C)O2", "relative growth": "inactive: 1.02"}
{"molecule": "C[C@H](CO)N1C[C@H](C)[C@H](CN(C)Cc2ccc(Oc3ccccc3)cc2)Oc2c(NC(=O)C3CCOCC3)cccc2C1=O", "relative growth": "inactive: 0.992"}
{"molecule": "C[C@@H]1CN([C@@H](C)CO)C(=O)CCCn2nncc2CO[C@H]1CN(C)S(C)(=O)=O", "relative growth": "inactive: 0.975"}
{"molecule": "Cc1noc(C)c1NC(=O)N(C)C[C@H]1OCCCC[C@H](C)Oc2ccc(NS(=O)(=O)c3ccccc3)cc2C(=O)N([C@@H](C)CO)C[C@@H]1C", "relative growth": "inactive: 1"}
{"molecule": "Cn1cnc(S(=O)(=O)N[C@@H]2CC[C@@H](CC(=O)N3CCN(c4ccccc4)CC3)O[C@H]2CO)c1", "relative growth": "inactive: 1.01"}
{"molecule": "C[C@H](CO)N1C[C@H](C)[C@@H](CN(C)CC2CCCCC2)Oc2ccc(NC(=O)Cc3cn(C)c4ccccc34)cc2CC1=O", "relative growth": "inactive: 0.997"}
{"molecule": "COc1ccc(NC(=O)Nc2ccc3c(c2)[C@H]2C[C@H](CC(=O)NCc4ccncc4)O[C@H](CO)[C@H]2O3)cc1", "relative growth": "inactive: 0.977"}
{"molecule": "COCC(=O)Nc1ccc2c(c1)OC[C@@H](C)N(Cc1ccccc1F)C[C@@H](C)[C@H](OC)CN(C)C2=O", "relative growth": "inactive: 1.01"}
{"molecule": "C[C@H](CO)N1C[C@H](C)[C@H](CN(C)C(=O)Nc2cccc3ccccc23)OCCCC[C@H](C)Oc2ccc(NS(=O)(=O)c3cn(C)cn3)cc2C1=O", "relative growth": "inactive: 0.911"}
{"molecule": "CCOc1cc(OCC)cc(C(=O)N[C@@H](Cc2ccc(-n3cc(-c4ccc(C(=O)NO)s4)nn3)cc2)C(=O)OC)c1", "relative growth": "inactive: 0.962"}
{"molecule": "O=C(C[C@@H]1CC[C@H](NC(=O)CN2CCOCC2)[C@H](CO)O1)NC1CCC1", "relative growth": "inactive: 0.968"}
{"molecule": "C[C@@H]1CN([C@@H](C)CO)C(=O)Cc2cc(NS(C)(=O)=O)ccc2O[C@@H]1CN(C)S(C)(=O)=O", "relative growth": "inactive: 0.999"}
{"molecule": "C[C@H](CO)N1C[C@H](C)[C@@H](CN(C)C(=O)Nc2ccc(C(F)(F)F)cc2)Oc2ncc(/C=C/c3ccccc3)cc2C1=O", "relative growth": "inactive: 1.01"}
{"molecule": "C[C@@H]1CCCCO[C@@H](CN(C)C(=O)Nc2ccc(F)cc2)[C@@H](C)CN([C@H](C)CO)C(=O)c2cc(NC(=O)CCCCCC(=O)Nc3ccccc3N)ccc2O1", "relative growth": "inactive: 1.05"}
{"molecule": "CN1C2CCC1CC(OC(=O)c1c[nH]c3ccccc13)C2.Cl", "note": "(stereo not drawn)", "relative growth": "inactive: 1.13"}
{"molecule": "CC(C)NC(=O)Nc1cccc2c1O[C@@H](CN(C)C(=O)NC1CCCCC1)[C@H](C)CN([C@H](C)CO)C2=O", "relative growth": "inactive: 1.02"}
{"molecule": "O=C(OCc1ccccc1)c1ccccc1", "relative growth": "inactive: 0.931"}
{"molecule": "Cc1ccc(S(=O)(=O)Nc2ccc3c(c2)CC(=O)N([C@@H](C)CO)C[C@H](C)[C@@H](CN(C)C(=O)Nc2ccc(C(F)(F)F)cc2)O3)cc1", "relative growth": "inactive: 0.973"}
{"molecule": "C[C@H](CO)N1C[C@H](C)[C@H](CN(C)S(=O)(=O)c2cccc(F)c2)Oc2ncc(C#Cc3ccc(F)cc3)cc2C1=O", "relative growth": "inactive: 1"}
